In PubChem BioAssay AID1347417 (National Center for Advancing Translational Sciences (NCATS), 2020):
Hit rate of the full screen: of about 120,000 compounds, about 5,300 (4.4%) were called active. This list was built around the results that the source calls inconclusive (neither active nor inactive); the mix of calls is not that of the screen. Calls follow the shape of the dose curve; as a rule, active = well fitted inhibition curve with a large enough effect; inconclusive = small, poorly fitted or top-dose-only effect; inactive = no such curve, though single readings can be large or run the other way. Potencies of inconclusive entries are doubtful fits and often do not repeat.

assay: qHTS Primary assay for Inhibitors of Plasmodium falciparum Dd2 growth in vitro; also: nearly all actives have a fitted effect of over 65% in size;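 as to activity, negative = inhibition: plate controls were DMSO vehicle for no effect and reference drug for full effect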; details: P. falciparum Dd2 growth, SYBR Green, 72 h; activity, negative = inhibition: at 28.9 µM (top of the series) unless noted; series mostly up to 28.9 µM
Method in brief: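 Infected erythrocytes (Dd2, 0.3% parasitemia, 2.5% hematocrit final) are added to compound in RPMI-1640/Albumax II medium, grown 72 h at 37C in low oxygen, then lysed with saponin/Triton-X containing SYBR Green and read by fluorescence.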
Potency is read from the fitted curve at half-maximal effect; tags tell the direction and shape of the fitted curve.

Structure (SMILES)	Potency	activity, negative = inhibition
CC(=O)N(C1CC1)C1CCOC2(CCN(C(=O)NCc3ccc(C)cc3)CC2)C1 (stereo not drawn)	inactive	–
Clc1ccc(C2Cn3nnc(-c4nc(C5CCCCC5)no4)c3CO2)cc1 (stereo not drawn)	inconclusive: 5.62 µM [inhibitor, partial curve, poor fit]	–
C=C[C@H]1CN2CC[C@H]1C[C@@H]2CNC(=O)Nc1cccc(SC)c1	inconclusive: 11.2 µM [inhibitor, partial curve]	–
CC(=O)N1Cc2ccccc2CC2(CCN(CC3CCOCC3)C2)C1 (stereo not drawn)	inconclusive: 0.708 µM [inhibitor, full curve, poor fit]	–
CC1=C[C@@H](CNC(=O)CC(C)(C)CC(=O)O)[C@H](C(C)C)C[C@H]1Cc1nc2ccccc2n1C	inconclusive: 4.47 µM [inhibitor, partial curve, poor fit]	–
O=C(O)c1ccc(CN2Cc3[nH]cnc3C[C@H]2c2nc(-c3ccncc3)no2)cc1	inconclusive: 5.62 µM [inhibitor, single point]	–
O=c1c2ccccc2nc(N2CCN(c3cccc(Cl)c3)CC2)n1-c1ccccc1	inconclusive: 10 µM [inhibitor, single point]	–
CCN(CC)CCCNC(=O)c1nn(-c2ccc(OC)cc2)c(=O)c2c1c1ccccc1n2C	inactive	–
O=C(NC1CCCCC1)C1CN(S(=O)(=O)c2ccccc2F)CC12CCOCC2 (stereo not drawn)	inactive	–
COc1cc(CN2CCCC3(C2)CN(C)C(=O)O3)ccc1OCC(N)=O (stereo not drawn)	inactive	–
CCOC(=O)c1c(NC(=O)c2cc3ccccc3c(=O)o2)sc2c1CCC(C(C)(C)C)C2 (stereo not drawn)	inactive	–
COC(=O)[C@@H]1Cc2ncn(Cc3ccccc3)c2CN1S(=O)(=O)c1ccc(C)cc1	inconclusive: 3.16 µM [inhibitor, partial curve]	–
COCCNC(=O)C(NC(=O)c1ccc(C)cc1)C1CCN(C(=O)c2ccc(Cl)cc2)CC1 (stereo not drawn)	inactive	–
CN(C)C[C@@H]1CN(Cc2cccnc2)C[C@H]1NC(=O)C1(c2ccccc2)CC1	inconclusive: 1 µM [inhibitor, partial curve, poor fit]	–
Cc1cc(C(=O)N2CCCCCNC(=O)[C@H]3C[C@H](C(=O)N4CCc5ccccc5C4)C[C@H]32)n(C)n1	inconclusive: 20 µM [inhibitor, single point]	–
CCOC(=O)N1CCc2c(sc3c2c(=O)n(-c2ccc(F)cc2)c(=O)n3CC(=O)c2ccccc2)C1	inconclusive: 5.01 µM [inhibitor, partial curve, poor fit]	–
Cc1cccc(CN2C(=O)c3ccccc3Sc3ccc(C(=O)NCc4cccs4)cc32)c1	inconclusive: 11.2 µM [inhibitor, single point]	–
O=C(NCCc1ccccc1)C1COc2ccccc2C1 (stereo not drawn)	inactive	–
CC1(c2ccccc2)N(Cc2ccccc2)C(=O)OC12CCN(Cc1cccc(C#N)c1)CC2 (stereo not drawn)	inconclusive: 5.01 µM [inhibitor, partial curve, poor fit]	–
O=C(c1ccc(Cl)cc1)N1CCC(n2cc(-c3ccncc3)[nH]c2=O)CC1	–	inconclusive: -33.6% [inhibitor]
CCC(=O)N(C1CCOCC1)C1CCN(S(=O)(=O)c2ccc(OC)cc2)CC1	inconclusive: 7.94 µM [inhibitor, single point]	–

Structure (SMILES)	Potency	activity, negative = inhibition
Cc1ccc(-c2nnc(Nc3cccc(Br)c3)c3ccccc23)cc1S(=O)(=O)NCC1CCCO1 (stereo not drawn)	active: 11.2 µM	–
COCCCNC(=O)CCc1ccc2c(c1)CN(C(=O)NC(C)C)CCO2	inactive	–
O=C(NCCN1CCOCC1)c1ccc2nc(-c3ccccc3)cn2c1	inconclusive: 11.2 µM [inhibitor, partial curve]	–
Cc1cnc(C(=O)N2CCC3(CC2)c2[nH]c4ccccc4c2CCN3C)cn1	inactive	–
Cn1c(=O)n(C)c2cc(NS(=O)(=O)c3ccc(C(C)(C)C)cc3)c(NCc3ccccc3)cc21	inconclusive: 14.1 µM [inhibitor, partial curve, poor fit]	–
CCc1nc2c(c(-c3ccc(Cl)cc3)n1)CCN([S+](=O)([O-])c1ccccc1)CC2	inconclusive: 17.8 µM [inhibitor, single point]	–
CCc1cccc(C)c1NC(=O)C(CC)Sc1nncn2c1cc1occc12 (stereo not drawn)	inconclusive: 11.2 µM [inhibitor, partial curve]	–
Cc1ccc(Nc2nc(C)c(NC(=O)c3ccc(C)cc3)c(Nc3ccc(C)cc3)n2)cc1	active: 8.91 µM	–
CN1C(=O)COC[C@@H]1[C@H](O)c1ccc(NC(=O)c2ccccc2)cc1	inconclusive: 2 µM [inhibitor, partial curve]	–
O=C(CCCc1ccccc1)N1C[C@@H](CO)[C@H](c2nc(C3CC3)no2)C1	inconclusive: 11.2 µM [inhibitor, single point]	–
COc1ccc(-n2c3c(cc(-c4nc(-c5ccc(Cl)cc5)cs4)c2=O)C(=O)CC(C)(C)C3)cc1Cl	inactive	–
O=C1CCN(C(=O)CC2CCCC2)CCCC(c2nc(-c3cccnc3)no2)CCN1 (stereo not drawn)	inconclusive: 3.98 µM [inhibitor, partial curve, poor fit]	–
COC(=O)[C@@H]1Cc2ncn(C(C)C)c2CN1C(=O)c1ccc(C(F)(F)F)cc1	inactive	–
COc1cc2ccccc2cc1C(=O)Nc1ccc2oc(-c3cccc(C)c3)nc2c1	inconclusive: 11.2 µM [inhibitor, partial curve, poor fit]	–
O=C1Nc2ccccc2C12CCN(Cc1ccccc1)CC2	inconclusive: 12.6 µM [inhibitor, partial curve]	–
O=C(c1cccc(F)c1)N1CCCCCC1c1nnc(-c2ccccc2)o1 (stereo not drawn)	inconclusive: 8.91 µM [inhibitor, single point]	–
COc1ccc(CNC(=O)N2C[C@@H](C)[C@](O)(C(C)C)C2)cc1	inactive	–
Cc1ccc(CN2CCc3oc(C)c(C(=O)N4CCSCC4)c3C2)cc1	active: 10 µM	–
Cc1ccc(C)c(Cn2ccn3nc4c(c3c2=O)CCCC4)c1	inconclusive: 7.94 µM [inhibitor, single point]	–
O=C(Nc1ccc([C@H]2OCC(=O)N(Cc3ccccc3)[C@@H]2CO)cc1)C1CCOCC1	inconclusive: 0.355 µM [inhibitor, partial curve, poor fit]	–
Cc1cccc(NC(=O)c2sc(-n3nc(C)c(CCC(C)C)c3C)nc2C)c1	inconclusive: 11.2 µM [inhibitor, single point]	–

Structure (SMILES)	Potency	activity, negative = inhibition
Cc1ccc2c(c1)N(C(=O)N1CCC(C(=O)NCc3ccccc3F)CC1)CC(C)O2 (stereo not drawn)	inconclusive: 12.6 µM [inhibitor, single point]	–
O=C(C1CC1)N1CCCC(c2noc(COc3ccccc3F)n2)C1 (stereo not drawn)	inconclusive: 5.62 µM [inhibitor, partial curve, poor fit]	–
Cn1nc(C(=O)N2CCCC(CN3CCOCC3)CC2)c2ccccc21 (stereo not drawn)	inconclusive: 7.94 µM [inhibitor, partial curve, poor fit]	–
COc1ccc(C(=O)Nc2nc3c(s2)Cc2cc(OC)ccc2-3)cc1	inconclusive: 17.8 µM [inhibitor, single point]	–
c1ccc(C2(c3ccccc3)CCCN(CCCn3cnnn3)C2)cc1	inconclusive: 6.31 µM [inhibitor, partial curve]	–
COc1cc2c(cc1CCc1ccccc1)N(C(=O)[C@@H]1CCCO1)CC21CCN(C(C)=O)CC1	inconclusive: 11.2 µM [inhibitor, partial curve, poor fit]	–
CCCN1CCN(C(=O)[C@H]2CCC[C@H]2NC(=O)c2ccc(OC)nc2)CC1	inactive	–
COCCCn1c(C)cnc1C1CCN(C(=O)COc2ccccc2)C1 (stereo not drawn)	inactive	–
O=C(NCC1Cn2cccc2CN1Cc1ccccc1)c1ccoc1 (stereo not drawn)	inconclusive: 11.2 µM [inhibitor, partial curve, poor fit]	–
CC(C)N1C(=O)C2(CCCC2)C1C(=O)NCC1CCCCC1 (stereo not drawn)	inactive	–
Cc1nn(-c2ccccc2)c2sc(C(=O)Nc3cccc(Br)c3)cc12	inconclusive: 17.8 µM [inhibitor, single point]	–
Cc1nc2ncnn2c(C)c1CCC(=O)NCc1cccc(Cl)c1	inactive	–
COCc1ccc2c(c1)c(OC(C)(C)C(=O)NC1CCOCC1)nn2Cc1ccccc1	inactive	–
Cn1c(CCC(=O)N2CC[C@H](O)C2)nc2cc(S(=O)(=O)N3CCCC3)ccc21	inactive	–
Cc1ccc(C(=O)N2CCc3sc(C(=O)NCc4ccc(F)cc4)cc3C2)cc1	inconclusive: 2.51 µM [inhibitor, full curve, poor fit]	–
Cc1ccc(C2(O)CCN(C(=O)c3ccc4nc(C)c(C)nc4c3)CC2)nc1	inconclusive: 8.91 µM [inhibitor, partial curve, poor fit]	–
CCOc1ccc(N2CC(c3nc4ccccc4n3CCOc3ccccc3)CC2=O)cc1 (stereo not drawn)	inconclusive: 15.8 µM [inhibitor, single point]	–
Cc1cc(C)c2[nH]c(C(=O)N3CCC(C#N)(c4ccccc4)CC3)c(C)c2c1	inconclusive: 11.2 µM [inhibitor, single point]	–
COC(=O)CN1C(=O)N(CCc2ccccc2)C2(CCN(Cc3ccc4c(c3)CCO4)CC2)C1=O	inconclusive: 7.08 µM [inhibitor, partial curve, poor fit]	–
Cc1nc(-c2ccc(F)cc2)sc1CCNC(=O)c1ccc(C(C)(C)C)cc1	inconclusive: 17.8 µM [inhibitor, single point]	–
COc1ccccc1N1CCN(C(=O)C[C@@H]2C[C@@H](C(C)C)[C@H](CC#N)C=C2C)CC1	inconclusive: 25.1 µM [inhibitor, single point]	–
